Screen size: about 39,000 compounds; about 220 (0.56%) showed activity. Some of the results follow.
These molecules were tested on Escherichia coli K-12 BW25113 (assay: relative growth (OD600 normalised to plate interquartile mean) (fraction); higher = less growth inhibition, active = 0.2 or less). Settings: 50 µM; LB; incubation time: overnight (16-24 h).
With `C[C@H](CO)N1C[C@H](C)[C@H](CN(C)C(=O)c2ccccc2)OCCCC[C@H](C)Oc2ccc(NC(=O)Nc3ccc4c(c3)OCO4)cc2C1=O` the relative growth was inactive: 0.998.
In the case of `C[C@@H]1CN([C@H](C)CO)C(=O)c2cc(NC(=O)C3CCCCC3)ccc2O[C@@H](C)CCCCO[C@H]1CN(C)C(=O)c1ccncc1`, the relative growth is reported as inactive: 1.
`C[C@H]1CN([C@@H](C)CO)C(=O)c2cc(NC(=O)Cn3cnnn3)ccc2O[C@H]1CN(C)Cc1ccc2c(c1)OCO2` was tested, and the relative growth was inactive: 1.
In the case of `C[C@@H]1CN([C@H](C)CO)C(=O)c2cc(NS(C)(=O)=O)ccc2O[C@@H]1CN(C)S(=O)(=O)c1ccccc1`, the relative growth is reported as inactive: 0.998.
In the case of `C[C@@H]1CN([C@H](C)CO)C(=O)c2cc(NS(C)(=O)=O)ccc2O[C@@H]1CN(C)C(=O)Nc1ccccc1`, the relative growth is reported as inactive: 1.01.
With `Cc1cc(C)c(-n2cccc2CN)c(C)c1` the relative growth was inactive: 1.01.
In the case of `C[C@H]1CN([C@@H](C)CO)C(=O)Cc2cc(NS(=O)(=O)c3ccccc3)ccc2O[C@H]1CN(C)S(=O)(=O)c1ccc(F)cc1`, the relative growth is reported as inactive: 1.01.
In the case of `Cc1ccc(S(=O)(=O)Nc2ccc3c(c2)C(=O)N([C@@H](C)CO)C[C@H](C)[C@@H](CN(C)C(=O)C2CCCCC2)OCCCC[C@H](C)O3)cc1`, the relative growth is reported as inactive: 0.998.
For `C[C@H]1CN([C@@H](C)CO)C(=O)Cc2cc(NC(=O)c3ccncc3)ccc2O[C@H]1CN(C)S(=O)(=O)c1ccccc1`, the relative growth was inactive: 1.01.
For `CN(C)Cc1cn(CC[C@@H]2CC[C@@H](N)[C@H](CO)O2)nn1`, the relative growth was inactive: 1.01.
`C[C@@H]1CN([C@H](C)CO)C(=O)CCCn2nncc2CO[C@@H]1CN(C)S(=O)(=O)c1ccc(Oc2ccccc2)nc1` was tested, and the relative growth was inactive: 1.03.
In the case of `CCS(=O)(=O)Nc1ccc2c(c1)C(=O)N(C)[C@H]1CC[C@H](CC(=O)N3CCN(C)CC3)O[C@@H]1CO2`, the relative growth is reported as inactive: 1.
In the case of `COC(=O)c1c(C(=O)OC)c2n(c(=O)c1-c1ccccc1)[C@@H]1c3ccccc3O[C@@](COCc3ccc(OC)cc3)([C@@H]1CO[Si](C)(C)C(C)(C)C)N2C`, the relative growth is reported as inactive: 1.03.
With `CCOC(=O)OC(C)OC(=O)C1N2C(=O)C(NC(=O)C(N)c3ccccc3)C2SC1(C)C.Cl` (stereo not given) the relative growth was active: 0.0511.
For `Cc1ccc(S(=O)(=O)N(C)C[C@@H]2Oc3ccc(NC(=O)c4ccncc4)cc3CC(=O)N([C@@H](C)CO)C[C@@H]2C)cc1`, the relative growth was inactive: 0.99.
For `Cc1noc(C)c1NC(=O)N(C)C[C@@H]1OCCCC[C@@H](C)Oc2ccc(NC(=O)Cc3ccccc3)cc2C(=O)N([C@@H](C)CO)C[C@@H]1C`, the relative growth was inactive: 1.01.
`C[C@@H]1CCCCO[C@H](CN(C)C(=O)Nc2ccccc2)[C@H](C)CN([C@@H](C)CO)C(=O)c2cc(NC(=O)Cc3ccccc3)ccc2O1` was tested, and the relative growth was inactive: 0.98.
In the case of `C=CCC[C@H](Cc1ccc(F)cc1)C(=O)OC[C@H]1CCCN1C(=O)[C@@H](CC=C)CC(=O)N(CCO)Cc1ccccc1`, the relative growth is reported as inactive: 0.991.
In the case of `COc1ccccc1S(=O)(=O)N[C@@H]1CC[C@H](CCNC(=O)C2CCOCC2)O[C@H]1CO`, the relative growth is reported as inactive: 0.969.
`COc1ccc2c3c([nH]c2c1)[C@H](CO)N(C[C@]13CCN(CC1)C(=O)c1cccnc1)C(=O)c1cccnc1` was tested, and the relative growth was inactive: 1.01.
In the case of `C[C@H](CO)N1C[C@H](C)[C@H](CN(C)Cc2ccc3c(c2)OCO3)Oc2c(NC(=O)c3ccc(-c4nccs4)cc3)cccc2C1=O`, the relative growth is reported as inactive: 1.
With `C[C@H]1CN([C@@H](C)CO)S(=O)(=O)c2ccc(C3=CCCCC3)cc2O[C@@H]1CN(C)Cc1cncnc1` the relative growth was inactive: 1.04.
With `CC(C)NC(=O)Nc1ccc2c(c1)CC(=O)N([C@H](C)CO)C[C@@H](C)[C@H](CN(C)S(=O)(=O)c1cccs1)O2` the relative growth was inactive: 1.01.
For `C[C@@H]1CN([C@H](C)CO)C(=O)c2cc(NS(=O)(=O)c3ccc(F)cc3)ccc2O[C@@H](C)CCCCO[C@H]1CN(C)Cc1ccccc1`, the relative growth was inactive: 0.999.
With `CC(C)(C)CN` the relative growth was inactive: 1.01.
In the case of `C[C@H]1CN([C@@H](C)CO)C(=O)Cc2cc(NC(=O)NC3CCCCC3)ccc2O[C@@H]1CN(C)Cc1ccc(Cl)c(Cl)c1`, the relative growth is reported as inactive: 1.02.
In the case of `COCCNC(=O)C[C@@H]1CC[C@@H](NS(=O)(=O)c2ccc(C)cc2)[C@@H](CO)O1`, the relative growth is reported as inactive: 0.994.
In the case of `C[C@H]1CN([C@@H](C)CO)S(=O)(=O)c2ccc(C#CC(C)(C)O)cc2O[C@H]1CN(C)Cc1ccncc1`, the relative growth is reported as inactive: 1.
With `COc1ccc(NC(=O)Nc2ccc3c(c2)C(=O)N([C@@H](C)CO)C[C@H](C)[C@@H](CN(C)C(=O)C2CCCCC2)OCCCC[C@@H](C)O3)cc1` the relative growth was inactive: 1.02.
With `C[C@@H]1CN([C@H](C)CO)C(=O)c2cccc(NC(=O)CCCCCC(=O)Nc3ccccc3N)c2O[C@@H]1CN(C)C(=O)Nc1ccccc1` the relative growth was inactive: 0.978.
With `C[C@@H]1CCCCO[C@@H](CN(C)C(=O)NC2CCCCC2)[C@@H](C)CN([C@@H](C)CO)C(=O)c2cc(NC(=O)Nc3ccc4c(c3)OCO4)ccc2O1` the relative growth was inactive: 1.01.
In the case of `C[C@H](CO)N1C[C@H](C)[C@@H](CN(C)Cc2ccc(Oc3ccccc3)cc2)Oc2c(NC(=O)CCC(F)(F)F)cccc2C1=O`, the relative growth is reported as inactive: 0.943.
For `Cc1noc(C)c1NC(=O)N(C)C[C@H]1Oc2ccc(NC(=O)CCN3CCOCC3)cc2CC(=O)N([C@H](C)CO)C[C@H]1C`, the relative growth was inactive: 0.981.
`COc1ccc(S(=O)(=O)Nc2ccc3c(c2)CC(=O)N([C@H](C)CO)C[C@H](C)[C@@H](CN(C)CC2CC2)O3)cc1` was tested, and the relative growth was inactive: 1.03.
In the case of `C[C@@H]1CN([C@H](C)CO)C(=O)c2cccc(NS(=O)(=O)c3ccccc3)c2O[C@@H]1CN(C)S(=O)(=O)c1cn(C)cn1`, the relative growth is reported as inactive: 0.994.
In the case of `C[C@@H]1CN([C@H](C)CO)C(=O)CCCn2nncc2CO[C@@H]1CN(C)S(=O)(=O)c1ccc(Cl)cc1`, the relative growth is reported as inactive: 0.981.
In the case of `C[C@@H]1CN([C@H](C)CO)C(=O)Cc2cc(NC(=O)Cc3cn(C)c4ccccc34)ccc2O[C@H]1CN(C)S(=O)(=O)c1cn(C)cn1`, the relative growth is reported as inactive: 0.999.
In the case of `C[C@@H]1CN([C@@H](C)CO)C(=O)c2cccc(NC(=O)C3CCCCC3)c2O[C@H]1CN(C)Cc1ccc(C(=O)Nc2ccccc2N)cc1`, the relative growth is reported as inactive: 1.04.
In the case of `Cn1cc(CN2C[C@H]3CCCO[C@H]3[C@H](NS(C)(=O)=O)C2)cn1`, the relative growth is reported as inactive: 0.979.
`Cc1noc(C)c1NC(=O)N(C)C[C@H]1Oc2ccc(NC(=O)Cn3cnnn3)cc2CC(=O)N([C@@H](C)CO)C[C@H]1C` was tested, and the relative growth was inactive: 1.
For `Cc1ccc(S(=O)(=O)N(C)C[C@@H]2Oc3ccc(NC(=O)Nc4ccc(C(F)(F)F)cc4)cc3C(=O)N([C@@H](C)CO)C[C@@H]2C)cc1`, the relative growth was inactive: 1.01.
`C[C@H](CO)N1C[C@H](C)[C@H](CN(C)C(=O)CN(C)C)Oc2ncc(C#CC(C)(C)O)cc2C1=O` was tested, and the relative growth was inactive: 0.999.
`C[C@@H]1CN([C@@H](C)CO)C(=O)c2cc(NS(=O)(=O)c3ccc(F)cc3)ccc2O[C@@H]1CN(C)Cc1ccc(-c2ccccc2)cc1` was tested, and the relative growth was inactive: 0.984.
For `C[C@@H]1CN([C@@H](C)CO)C(=O)Cc2cc(NC(=O)Cn3cnnn3)ccc2O[C@H]1CN(C)Cc1ccc(C(=O)O)cc1`, the relative growth was inactive: 1.01.
In the case of `Cc1ccc(S(=O)(=O)Nc2cccc3c2O[C@@H](CN(C)C(=O)NC(C)C)[C@H](C)CN([C@H](C)CO)C3=O)cc1`, the relative growth is reported as inactive: 0.997.
In the case of `CS(=O)(=O)N1CCOC[C@@]2(C1)CN(S(=O)(=O)C1CC1)CCO2`, the relative growth is reported as inactive: 1.05.
In the case of `CC(=O)N1CCO[C@H]2CCN(C(=O)c3ccn(C)n3)C[C@H]21`, the relative growth is reported as inactive: 0.994.
For `CC(C)NC(=O)Nc1cccc2c1O[C@H](CN(C)S(=O)(=O)c1cn(C)cn1)[C@@H](C)CN([C@H](C)CO)C2=O`, the relative growth was inactive: 1.01.
For `C[C@@H]1CN([C@@H](C)CO)C(=O)c2cc(NC(=O)C3CC3)ccc2O[C@@H]1CN(C)S(=O)(=O)c1cn(C)cn1`, the relative growth was inactive: 0.899.
With `O=C(O)C1CCC1` the relative growth was inactive: 1.02.
For `C[C@@H]1CN([C@@H](C)CO)C(=O)c2cccc(NS(=O)(=O)c3ccccc3)c2O[C@H]1CN(C)Cc1ccc(-c2ccccc2)cc1`, the relative growth was inactive: 1.02.
`C[C@@H]1O[C@@H](O[C@@H]2[C@@H](O)[C@H](O)[C@@H](CO)O[C@H]2c2c(O)cc(O)c3c(=O)cc(-c4ccc(O)cc4)oc23)[C@H](O)[C@H](O)[C@H]1O` was tested, and the relative growth was inactive: 0.972.
For `COc1ccc2c(=O)c(OC)c(-c3ccccc3)oc2c1`, the relative growth was inactive: 1.04.
In the case of `C=CCOC(=O)N(C)C[C@@H]1OCCCC[C@H](C)Oc2ccc(NC(=O)Nc3ccccc3)cc2C(=O)N([C@H](C)COC(=O)c2ccccc2)C[C@H]1C`, the relative growth is reported as inactive: 1.01.
For `CO[C@H]1CN(C)C(=O)c2cc(NC(=O)CC(F)(F)F)ccc2OC[C@@H](C)N(S(=O)(=O)c2cn(C)cn2)C[C@H]1C`, the relative growth was inactive: 0.975.
For `CC(C)NC(=O)Nc1ccc2c(c1)C(=O)N([C@@H](C)CO)C[C@H](C)[C@H](CN(C)Cc1ccc3c(c1)OCO3)O2`, the relative growth was inactive: 0.934.
`C[C@@H]1CCCCO[C@H](CN(C)C(=O)Nc2ccccc2)[C@@H](C)CN([C@@H](C)CO)C(=O)c2cc(NC(=O)c3ccccc3)ccc2O1` was tested, and the relative growth was inactive: 1.03.
`Cc1cccc(C(=O)NN)c1` was tested, and the relative growth was inactive: 1.
With `C[C@H](CO)N1C[C@H](C)[C@H](CN(C)C(=O)Nc2ccc(F)cc2)Oc2c(NC(=O)Nc3ccc(C(F)(F)F)cc3)cccc2C1=O` the relative growth was inactive: 0.987.
In the case of `COc1ccc(S(=O)(=O)N(C)C[C@@H]2OCCCC[C@H](C)Oc3ccc(NC(=O)c4ccccc4)cc3C(=O)N([C@H](C)CO)C[C@H]2C)cc1`, the relative growth is reported as inactive: 1.04.

From the supplement of paper PMC9446081
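Also: static incubation at 37 °C against the wild-type strain, values averaged over two biological replicates.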
